# The name of at least one read-out is uncertain.
# Target: hCB1 (Homo sapiens, UniProt P21554)
# Assay: In vitro binding assay using hCB1-CHO membranes, [3H]-CP-55,940 displacement (Protocol II)
# Design: expressed in transfected cells; host or cells: CHO (hCB1-CHO, generated in-house)
# Conditions: [3H]-CP-55,940 displacement
# Summary of the method: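 Incubated 1 h at 37° C, stopped by rapid vacuum filtration on PEI-precoated GF/B filters, bound radioactivity counted by liquid scintillation.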
# UniProt P21554, sequence (P21554 whole entry): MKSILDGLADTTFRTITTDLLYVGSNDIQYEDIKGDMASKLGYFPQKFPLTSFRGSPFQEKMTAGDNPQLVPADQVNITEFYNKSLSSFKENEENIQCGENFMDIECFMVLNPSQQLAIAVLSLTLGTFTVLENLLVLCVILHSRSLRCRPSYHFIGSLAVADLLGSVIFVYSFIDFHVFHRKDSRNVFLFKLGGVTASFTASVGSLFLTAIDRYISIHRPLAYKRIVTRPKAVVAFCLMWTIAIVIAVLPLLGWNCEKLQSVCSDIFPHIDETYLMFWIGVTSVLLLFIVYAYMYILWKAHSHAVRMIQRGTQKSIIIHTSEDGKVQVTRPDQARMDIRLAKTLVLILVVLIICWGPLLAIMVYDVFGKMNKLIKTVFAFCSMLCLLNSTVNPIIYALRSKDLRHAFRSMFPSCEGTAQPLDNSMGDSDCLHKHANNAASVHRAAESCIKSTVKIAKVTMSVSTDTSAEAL
row,Compound,% Displacement Protocol II [%]
1,"O=C(NN1CCCCC1)c1nn(-c2ccc(Br)cc2)c2c1C1CCC2C1 (centres unmarked) [Example 274, N(3)-Piperidino-1-(4-bromophenyl)-4,5,6,7-tetrahydro-1H-4,7-methano-indazole-3-carboxamide]",7.83
2,"O=C(NC1CCCCC1)c1nn(-c2ccc(Br)cc2)c2c1C1CCC2C1 (centres unmarked) [Example 275, N(3)-Cyclohexyl-1-(4-bromophenyl)-4,5,6,7-tetrahydro-1H-4,7-methano-indazole-3-carboxamide]",7.02
3,"O=C(NCc1ccccc1)c1nn(-c2ccc(Br)cc2)c2c1C1CCC2C1 (centres unmarked) [Example 276, N(3)-Benzyl-1-(4-bromophenyl)-4,5,6,7-tetrahydro-1H-4,7-methano-indazole-3-carboxamide]",3.97
4,"O=C(NNc1ccccc1)c1nn(-c2ccc(Br)cc2)c2c1C1CCC2C1 (centres unmarked) [Example 277, N(3)-Phenylamino-1-(4-bromophenyl)-4,5,6,7-tetrahydro-1H-4,7-methano-indazole-3-carboxamide]",5.41
5,"O=C(NNc1ccccc1F)c1nn(-c2ccc(Br)cc2)c2c1C1CCC2C1 (centres unmarked) [Example 278, N(3)-[(2-Fluorophenyl)amino]-1-(4-bromophenyl)-4,5,6,7-tetrahydro-1H-4,7-methano-indazole-3-carboxamide]",26.86
6,"O=C(NCc1ccccc1)c1nn(-c2ccc(F)cc2)c2c1C1CCC2C1 (centres unmarked) [Example 280, N(3)-Benzyl-1-(4-fluorophenyl)-4,5,6,7-tetrahydro-1H-4,7-methano-indazole-3-carboxamide]",40.37
7,"O=C(NNc1ccccc1)c1nn(-c2ccc(F)cc2)c2c1C1CCC2C1 (centres unmarked) [Example 284, N(3)-Phenylamino-1-(4-fluorophenyl)-4,5,6,7-tetrahydro-1H-4,7-methano-indazole-3-carboxamide]",25.15
8,"O=C(NNc1ccccc1Br)c1nn(-c2ccc(F)cc2F)c2c1C1CCC2C1 (centres unmarked) [Example 287, N(3)-[(2-bromophenyl)amino]-1-(2,4-difluorophenyl)-4,5,6,7-tetrahydro-1H-4,7-methano-indazole-3-carboxamide]",36.8
9,"O=C(NNc1ccccc1F)c1nn(-c2ccc(F)cc2F)c2c1C1CCC2C1 (centres unmarked) [Example 288, N(3)-[(2-Fluorophenyl)amino]-1-(2,4-difluorophenyl)-4,5,6,7-tetrahydro-1H-4,7-methano-indazole-3-carboxamide]",1.05
10,"O=C(NN1CCCCC1)c1nn(-c2ccc(F)cc2F)c2c1C1CCC2C1 (centres unmarked) [Example 289, N(3)-Piperidino-1-(2,4-difluorophenyl)-4,5,6,7-tetrahydro-1H-4,7-methano-indazole-3-carboxamide]",40.2
11,"O=C(NCc1ccccc1Cl)c1nn(-c2ccc(F)cc2F)c2c1C1CCC2C1 (centres unmarked) [Example 297, N5-(2-Chlorobenzyl)-3-(2,4-difluorophenyl)-3,4-diazatricyclo[5.2.1.0^2,6]deca-2(6),4-diene-5-carboxamide]",71.92
12,"O=C(NCc1ccc(Cl)cc1)c1nn(-c2ccc(F)cc2F)c2c1C1CCC2C1 (centres unmarked) [Example 298, N5-(4-Chlorobenzyl)-3-(2,4-difluorophenyl)-3,4-diazatricyclo[5.2.1.0^2,6]deca-2(6),4-diene-5-carboxamide]",28.07
13,"CC(C)(C)NC(=O)c1nn(-c2ccc(Cl)cc2)c2c1C1CCC2C1 (centres unmarked) [Example 321, N(3)-(tert-Butyl)-1-(4-chlorophenyl)-4,5,6,7-tetrahydro-1H-4,7-methano-indazole-3-carboxamide]",11.78
14,"CC(C)(C)NC(=O)c1n[nH]c2c1C1(c3ccc(Cl)c(Cl)c3)CCC2C1 (centres unmarked) [Example 325, N(3)-(tert-Butyl)-4-(3,4-dichlorophenyl)-4,5,6,7-tetrahydro-1H-4,7-methano-indazole-3-carboxamide]",50.42
15,"CC(C)(C)NC(=O)c1nn(-c2ccc(Cl)cc2Cl)c2c1C1CCC2C1 (centres unmarked) [Example 327, N(3)-(tert-Butyl)-1-(2,4-dichlorophenyl)-4,5,6,7-tetrahydro-1H-4,7-methano-indazole-3-carboxamide]",70.23
16,"O=C(Nc1ccc(O)cc1)c1nn(-c2ccc(F)cc2F)c2c1C1CCC2C1 (centres unmarked) [Example 328, N(3)-(4-Hydroxyphenyl)-1-(2,4-difluorophenyl)-4,5,6,7-tetrahydro-1H-4,7-methano-indazole-3-carboxamide]",2.00
17,"CCOc1cc(F)ccc1-n1nc(C(=O)NC(C)(C)C)c2c1C1CCC2C1 (centres unmarked) [Example 329, N(3)-(tert-Butyl)-1-(2-ethoxy,4-fluorophenyl)-4,5,6,7-tetrahydro-1H-4,7-methano-indazole-3-carboxamide]",11.58
18,"CC12CCC(c3c(C(=O)Nc4ccccc4)nn(-c4ccc(Cl)cc4Cl)c31)C2(C)C (centres unmarked) [Example 401, N(3)-Phenyl-1-(2,4-dichlorophenyl)-7,8,8-trim ethyl-4,5,6,7-tetrahydro-1H-4,7-methano-indazole-3-carboxamide]",12.04
19,"CC12CCC(c3c(C(=O)NNc4ccccc4F)nn(-c4ccc(Cl)cc4Cl)c31)C2(C)C (centres unmarked) [Example 402, N(3)-[(2-Fluorophenyl)amino]-1-(2,4-Dichlorophenyl)-7,8,8-trimethyl-4,5,6,7-tetrahydro-1H-4,7-methano-indazole-3-carboxamide]",16.52
20,"CC12CCC(c3c(C(=O)NNc4ncccc4Cl)nn(-c4ccc(Cl)cc4Cl)c31)C2(C)C (centres unmarked) [Example 404, N(3)-[(3-chloropyridin-2-yl)amino]-1-(2,4-Dichlorophenyl)-7,8,8-trimethyl-4,5,6,7-tetrahydro-1H-4,7-methano-indazole-3-carboxamide]",24.34
21,"COC(=O)[C@H](NC(=O)c1nn(-c2ccc(F)cc2F)c2c1C1CCC2(C)C1(C)C)c1ccccc1 (stereo partly drawn) [Example 409, Methyl (2R)-2-[1-(2,4-difluorophenyl)-7,8,8-trimethyl-4,5,6,7-tetrahydro-1H-4,7-methano-indazole-3-carboxamido]-2-phenylethanoate]",85.98
22,"O=C(NCc1ccccc1)c1nn(-c2ccc(Cl)cc2Cl)c2c1C1CCC2c2ccccc21 (centres unmarked) [Example 501, N(12)-Benzyl-10-(2,4-dichlorophenyl)-10,11-diazatetracyclo[6.5.2.0^2,7.0^9,13]pentadeca-2,4,6,9(13),11-pentaene-12-carboxamide]",70.15
23,"O=C(NN1CCCCC1)c1nn(-c2ccc(Cl)cc2Cl)c2c1C1CCC2c2ccccc21 (centres unmarked) [Example 502, N(12)-Piperidino-10-(2,4-dichlorophenyl)-10,11-diazatetracyclo[6.5.2.0^2,7.0^9,13]pentadeca-2,4,6,9(13),11-pentaene-12-carboxamide]",52.76
24,"CC12CCC(C1)C(C)(C)C2NC(=O)c1nn(-c2ccc(Cl)cc2Cl)c2c1C1CCC2c2ccccc21 (centres unmarked) [Example 507, N12-(1,3,3-Trimethylbicyclo[2.2.1]hept-2-yl)-10-(2,4-dichlorophenyl)-10,11-diazatetracyclo[6.5.2.0^2,7.0^9,13]pentadeca-2(7),3,5,9(13),11-pentaene-12-carboxamide]",76.33
25,"CC(C)(NC(=O)c1nn(-c2ccc(Cl)cc2Cl)c2c1C1CCC2c2ccccc21)c1ccccc1 (centres unmarked) [Example 508, N12-(1-Methyl-1-phenylethyl)-10-(2,4-dichlorophenyl)-10,11-diazatetracyclo[6.5.2.0^2,7.0^9,13]pentadeca-2,4,6,9(13),11-pentaene-12-carboxamide]",95.97

# Same assay, conditions: cell marked @1 / @ 1 μm
row,Compound,% Displacement Protocol II
1,"O=C(NNc1ccccc1)c1nn(-c2ccc(F)cc2F)c2c1C1CCC2C1 (centres unmarked) [Example 285, N(3)-Phenylamino-1-(2,4-difluorophenyl)-4,5,6,7-tetrahydro-1H-4,7-methano-indazole-3-carboxamide]",53.9@1 μm %

# — US7923465B2, “Cannabinoid receptor ligands, pharmaceutical compositions containing them, and process for their preparation” (priority 2005, dated 2011)
